Results reported in patent US20180015075A1, “METHODS AND COMPOSITIONS FOR TREATMENT OF VENOUS MALFORMATION” (Children's Hospital Medical Center, priority 2016, published 2018).

How the values were obtained:
[1] = test system: HUVEC (non-transfected); details: for Combination Index (CI) with rapamycin, HUVEC: ABL kinase inhibitor 10 μM to 30 nM combined with rapamycin 10 nM
[2] = test system: HUVEC (non-transfected); test: cells; details: Homo sapiens; for inhibition at 20 µM: read-out: Average proliferation Inhibition rate (%) HUVEC; for IC50: read-out: IC50 HUVEC

Molecule | inhibition at 20 µM [2] [%] | other results
N.N.O=C([O-])C1(C(=O)[O-])CCC1.[Pt+2] [Carboplatin] | – | Average proliferation Inhibition rate (%) HUVEC ([1]; 20 uM): 3.77%
CNNCc1ccc(C(=O)NC(C)C)cc1.Cl [Procarbazine hxdrochloride] | – | Average proliferation Inhibition rate (%) HUVEC ([1]; 20 uM): 0.84%
Arsenic trioxide | – | Average proliferation Inhibition rate (%) HUVEC ([1]; 20 uM): 1.49%
CO[C@H]1C[C@@H]2CC[C@@H](C)[C@@](O)(O2)C(=O)C(=O)N2CCCC[C@H]2C(=O)O[C@H]([C@H](C)C[C@@H]2CC[C@@H](OCCO)[C@H](OC)C2)CC(=O)[C@H](C)/C=C(\C)[C@@H](O)[C@@H](OC)C(=O)[C@H](C)C[C@H](C)/C=C/C=C/C=C/1C [Everolimus, 42-O-(2-Hydroxyethyl)-rapamycin] | 39.8 | IC50 [2]: < 0.03 µM
Cl.N[C@@H](Cc1ccc(N(CCCl)CCCl)cc1)C(=O)O [Melphalan hxdrochloride] | – | Average proliferation Inhibition rate (%) HUVEC ([1]; 20 µM): 11.09%
S=c1nc[nH]c2nc[nH]c12 [Mercaptopurine] | 6.1 | –
O=C1[O][Pt]2([NH][C@@H]3CCCC[C@H]3[NH]2)[O]C1=O [Oxaliplatin] | – | Average proliferation Inhibition rate (%) HUVEC ([1]; 20 µM): 25.39%
Cc1ccc(-c2cc(C(F)(F)F)nn2-c2ccc(S(N)(=O)=O)cc2)cc1 [Celecoxib] | 0.37 | –
CC(C)(C#N)c1cc(Cn2cncn2)cc(C(C)(C)C#N)c1 [Anastrozole] | 4.23 | –
CC[C@]1(O)C[C@H]2CN(CCc3c([nH]c4ccccc34)[C@@](C(=O)OC)(c3cc4c(cc3OC)N(C=O)[C@H]3[C@@](O)(C(=O)OC)[C@H](OC(C)=O)[C@]5(CC)C=CCN6CC[C@]43[C@@H]65)C2)C1 [Vincristine sulfate] | 49.8 | –
CNC(=O)c1cc(Oc2ccc(NC(=O)Nc3ccc(Cl)c(C(F)(F)F)c3)c(F)c2)ccn1 [Regorafenib] | 56.7 | –
CC(=O)O[C@@]12CO[C@@H]1C[C@H](O)[C@@]1(C)C(=O)[C@H](O)C3=C(C)[C@@H](OC(=O)[C@H](O)[C@@H](NC(=O)OC(C)(C)C)c4ccccc4)C[C@@](O)([C@@H](OC(=O)c4ccccc4)[C@H]21)C3(C)C [Docetaxel] | 38.8 | –
Nc1ncn([C@H]2C[C@H](O)[C@@H](CO)O2)c(=O)n1 [Decitabine] | 3.11 | –
CO[C@H]1C[C@@H]2CC[C@@H](C)[C@@](O)(O2)C(=O)C(=O)N2CCCC[C@H]2C(=O)O[C@H]([C@H](C)C[C@@H]2CC[C@@H](O)[C@H](OC)C2)CC(=O)[C@H](C)/C=C(\C)[C@@H](O)[C@@H](OC)C(=O)[C@H](C)C[C@H](C)/C=C/C=C/C=C/1C [Sirolimus, Rapamycin] | 43.1 | IC50 [2]: < 0.03 µM
COc1c2occc2cc2ccc(=O)oc12 [Methoxsalen] | -1.93 | –
COc1cc(Nc2c(C#N)cnc3cc(OCCCN4CCN(C)CC4)c(OC)cc23)c(Cl)cc1Cl [Bosutinib, 4-((2,4-Dichloro-5-methoxyphenyl)amino)-6-methoxy-7-(3-(4-methyl-1-piperazinyl)propoxy)3-quinolinecarbonitrile] | 35.8 | Combination Index (CI) with rapamycin, HUVEC [1]: 1.47 ± 0.41; IC50 [2]: 5.16 ± 1.85 µM
Nc1cccc2c1C(=O)N(C1CCC(=O)NC1=O)C2=O (stereo not drawn) [Pomalidomide] | 5.37 | –
Cc1cn(-c2cc(NC(=O)c3ccc(C)c(Nc4nccc(-c5cccnc5)n4)c3)cc(C(F)(F)F)c2)cn1 [Nilotinib, 4-Methyl-N-[3-(4-methyl-1H-imidazol-1-yl)-5-(trifluoromethyl)phenyl]-3-[[4-(3-pyridinyl)-2-pyrimidinyl]amino]-benzamide] | -7.48 | Combination Index (CI) with rapamycin, HUVEC [1]: 0.71 ± 0.27; IC50 [2]: 6.39 ± 1.18 µM
C[C@@H](CN1CC(=O)NC(=O)C1)N1CC(=O)NC(=O)C1 [Dexrazoxane] | 13.4 | –
Cn1nnc2c(C(N)=O)ncn2c1=O [Temozolomide] | 3.01 | –
Nc1nc(Cl)nc2c1ncn2[C@@H]1O[C@H](CO)[C@@H](O)[C@@H]1F [Clofarabine] | 55.8 | –

Molecule | inhibition at 20 µM [2] [%] | other results
Cc1ccc(Nc2nccc(N(C)c3ccc4c(C)n(C)nc4c3)n2)cc1S(N)(=O)=O [Pazopanib hydrochloride] | 4.01 | –
CS(=O)(=O)OCCCCOS(C)(=O)=O [Busulfan] | 1.68 | –
CN(Cc1cnc2nc(N)nc(N)c2n1)c1ccc(C(=O)N[C@@H](CCC(=O)O)C(=O)O)cc1 [Methotrexate] | -3.4 | –
C=CC(=O)N1CCC[C@@H](n2nc(-c3ccc(Oc4ccccc4)cc3)c3c(N)ncnc32)C1 [Ibrutinib] | 31.6 | –
O=c1[nH]c(=O)n([C@H]2C[C@H](O)[C@@H](CO)O2)cc1F [Floxuridine] | 23.2 | –
COc1cccc2c1C(=O)c1c(O)c3c(c(O)c1C2=O)C[C@@](O)(C(C)=O)C[C@@H]3O[C@H]1C[C@H](N)[C@H](O)[C@H](C)O1 [Daunorubicin hydrochloride] | 76 | –
Bleomycin sulfate | – | Average proliferation Inhibition rate (%) HUVEC ([1]; 20 µM): 50.88%
CNC(=O)c1ccc(N2C(=S)N(c3ccc(C#N)c(C(F)(F)F)c3)C(=O)C2(C)C)cc1F [Enzalutamide] | 82.9 | –
COc1cc([C@@H]2c3cc4c(cc3[C@@H](O[C@@H]3O[C@@H]5CO[C@@H](C)O[C@H]5[C@H](O)[C@H]3O)[C@H]3COC(=O)[C@H]23)OCO4)cc(OC)c1O [Etoposide] | 48 | –
O=C(O)CCCc1ccc(N(CCCl)CCCl)cc1 [Chlorambucil] | 22 | –
Cl.Nc1ccn([C@@H]2O[C@H](CO)[C@@H](O)[C@@H]2O)c(=O)n1 [Cytarabine hxdrochloride] | – | Average proliferation Inhibition rate (%) HUVEC ([1]; 20 uM): 42.88%
Nc1nc2[nH]cc(CCc3ccc(C(=O)N[C@@H](CCC(=O)O)C(=O)O)cc3)c2c(=O)[nH]1 [Pemetrexed disodium salt] | 2.48 | –
C=C1C[C@@H]2[C@H](CC[C@]3(C)C(=O)CC[C@@H]23)[C@@]2(C)C=CC(=O)C=C12 [Exemestane] | 5.08 | –
COc1cc2c(Nc3ccc(Br)cc3F)ncnc2cc1OCC1CCN(C)CC1 [Vandetanib] | 57.8 | IC50 [2]: 6.2 ± 0.95 µM
S=P(N1CC1)(N1CC1)N1CC1 [Thiotepa] | 21.6 | –
CO[C@H]1C[C@@H]2CC[C@@H](C)[C@@](O)(O2)C(=O)C(=O)N2CCCC[C@H]2C(=O)O[C@H]([C@H](C)C[C@@H]2CC[C@@H](OC(=O)C(C)(CO)CO)[C@H](OC)C2)CC(=O)[C@H](C)/C=C(\C)[C@@H](O)[C@@H](OC)C(=O)[C@H](C)C[C@H](C)/C=C/C=C/C=C/1C [Temsirolimus, 42-[3-Hydroxy-2-(hydroxymethyl)-2-methylpropanoate]-rapamycin] | 41.5 | IC50 [2]: < 0.03 µM
CCc1c2c(nc3ccc(OC(=O)N4CCC(N5CCCCC5)CC4)cc13)-c1cc3c(c(=O)n1C2)COC(=O)[C@]3(O)CC [Irinotecan hydrochloride] | 44 | –
CC1=C(/C=C/C(C)=C/C=C/C(C)=C/C(=O)O)C(C)(C)CCC1 [Tretinoin] | -3.57 | –
O=P(O)(O)C(O)(Cn1ccnc1)P(=O)(O)O [Zoledronic acid] | -8.23 | –
NC(=O)NO [Hydroxyurea] | -2.21 | –
Dabrafenib mesylate [Dabrafenib-mesylate] | – | Average proliferation Inhibition rate (%) HUVEC ([1]; 20 uM): 22.13%; IC50 ([1]; read-out: IC50 HUVEC, 6 dilution doses from 10 μM to 30 nM): > 10 µM

Structures can show the parent of a compound that is named as a salt. Where two headings read alike, the source gives them in different places.
